This test has as its system K-562 leukemia growth, % test/control. Briefly: Anticancer human tumor K-562 cell line growth inhibition.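 For all read-outs here: spheroids exposed to compounds for 7 days.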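 For viability, T/C: 100% = DMSO vehicle wells and lower values mean fewer viable cells.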 Conditions: spheroids with HUVEC and MSC; for viability, T/C: stronger effect = lower value. The text has this:
Multicellular complex tumor spheroid response to LSD1 Inhibitor Iadademstat in combination with a variety of drugs and investigational agents in selected tumor cell lines
The current study was undertaken to assess response to LSD1 inhibitors in combination with standard-of-care drugs and investigational agents in solid tumor complex spheroid models as well as in the K-562 leukemia. Complex spheroids include a stromal component modeled by human endothelial cells (HUVEC) and fibroblasts modeled by human mesenchymal stem cells (MSCs). The concentration ranges selected for each drug and investigational agent were based upon clinically achievable concentrations if the clinical Cmax of the agent was known.
Compounds. The drugs and investigational agents used in this study are listed on Table 1. All of the agents used, including staurosporine (NSC755774) and gemcitabine (NSC613327), were obtained from the Developmental Therapeutics Program, NCI. FDA-approved anticancer drugs are available from the NCI at http://dtp.nci.nih.gov/branches/dscb/oncology_drugset_explanation.html. Drugs and investigational agents were >95% pure by proton nuclear magnetic resonance (NMR) and liquid chromatography/mass spectrometry (LC/MS). Stock solutions were prepared at 400x in DMSO, stored at -70 degrees C, and diluted in fresh medium prior to their use. The final concentration of DMSO in cell culture wells never exceeded 0.25% (v/v). The FDA-approved anticancer drug set is available from the Developmental Therapeutics Program at https://dtp.cancer.gov/organization/dscb/obtaining/available_plates.htm. All drugs and investigational agents were tested over a range starting from a high concentration at or near the clinical Cmax and decreasing in half-log increments. If the clinical Cmax for an agent had not been determined, the highest concentration tested was 10 microM.
Cell Lines. The patient-derived cancer cell (PDC) lines: 292921-168-R-J2-PDC, K24384-001-R-PDC, and 521955-158-R2-J5-PDC pancreatic carcinomas, 556581-035-R-J1 ovarian carcinoma, 324938-238-R-J1-PDC, 855422-203-R-J1-PDC and 883617-216-R-J1-PDC urothelial bladder carcinomas, 743489-274-T-PDC renal cell carcinoma, 138582-R-J1 Merkel cell tumor, K60290-347-R-J1 and K57222-313-R-J1-PDC glioblastomas, 653999-131-R-J2-PDC, LG0703-F948-PDC, and 349418-098-R-PDC non-small cell lung carcinomas, 885512-296-R-J2-PDC, 171881-019-R-J1-PDC breast carcinomas and 186277-243-T-J2-PDC and 233499-124-R-J2-PDC colon carcinomas were obtained from the NCI Patient-Derived Models Repository (PDMR, https://pdmr.cancer.gov). The established cell lines NCI/ADR-RES (RRID:CVCL_14520 and OVCAR-5 (RRID:CVCL_1628) ovarian carcinomas, 786-O (RRID:CVCL_1051) and A498 (RRID:CVCL_A498) renal cell carcinoma, NCI-H211 (ATCC, cat. CRL-5824; RRID:CVCL_1529), NCI-H196 (ATCC, cat. CRL-5823, RRID:CVCL_1509), SW 1271 (ATCC, cat. CRL-2177, RRID:CVCL_1716) and NCI-H1876 (ATCC, cat. CRL-5902, RRID:CVCL_1503) small cell lung carcinomas, MDA-MB-231 (RRID:CVCL_0062) and MDA-MB-468 (RRID:CVCL_0419)breast carcinomas (10-12). Pooled donor human umbilical vein endothelial cells (HUVEC, Lonza, cat. CC-2519) and human mesenchymal stem cells (hMSC, Lonza, cat. PT-2501) were purchased from Lonza (Walkersville, MD).
Cell Culture. All cells were maintained in an incubator at 37 degrees C and 5% CO2 with 95% humidity. The PDC lines were cultured according to standard operating procedures established by the NCI PDMR (https://pdmr.cancer.gov). […]

Each structure is given as a SMILES string. A number of entries come with more than one value. They are shown here; other results are not. An entry can have further records. The values listed for one entry repeat one measurement in other runs, samples, wells, individuals or studies. Marks such as [2022-09] give the month of the run. Some results are limits rather than exact numbers.

Turning to `CC1(C)CCC(CN2CCN(c3ccc(C(=O)NS(=O)(=O)c4ccc(NCC5CCOCC5)c([N+](=O)[O-])c4)c(Oc4cnc5[nH]ccc5c4)c3)CC2)=C(c2ccc(Cl)cc2)C1`, the viability, T/C (commonly the ratio of treated to control) (compound alone 10 µM) is 31.4% [2022-01] and 2.13% [2022-02].
As for `CC(C)CC(NC(=O)C(Cc1ccccc1)NC(=O)c1cnccn1)B(O)O` (stereo not given), the viability, T/C (compound alone 0.001 µM) is 97% [2022-01] and 4.62% [2022-02].
With `COc1cc(Nc2ncc3c(n2)-c2ccc(Cl)cc2C(c2c(F)cccc2OC)=NC3)ccc1C(=O)O`, the viability, T/C (compound alone 1 µM) is 35.1% [2022-01] and 3.37% [2022-02].
With `Nc1ccn(C2OC(CO)C(O)C2(F)F)c(=O)n1` (stereo not given), under “compound alone”, the IC50 (usually the concentration needed to halve the response being measured) is < 0.949 nM [2022-01] and 9.99 nM [2022-02].
On to `O=C(C=Cc1cccc(S(=O)(=O)Nc2ccccc2)c1)NO`, for which the viability, T/C (compound alone 3 µM) was 0.15% [2022-01] and 106% [2022-02].

The record behind these values is PubChem BioAssay AID1918948 (Molecular Pharmacology Branch, DTP, NCI, 2023).
